Laboratory results as given in the supplement of paper PMC8728848.
This is one part of the list.

Assays:
Assay in all cases: glycan array binding signal (z-score within array); higher = stronger binding
Details in all cases: glycan notation: IUPAC condensed, linker removed
[1] = target: Fuc(a1-2)Gal(b1-4)[Fuc(a1-3)]GlcNAc(b1-2)Man(a1-3)[Fuc(a1-2)Gal(b1-4)[Fuc(a1-3)]GlcNAc(b1-2)Man(a1-6)]Man(b1-4)GlcNAc(b1-4)[Fuc(a1-6)]GlcNAc
How it was run: (§1)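 The binding signal is a Z-score computed within each array and averaged over linkers. Arrays of the same protein sequence at different concentrations or buffers were also averaged together. Data originate from 3228 arrays in the Consortium for Functional Glycomics database, kept only where the protein sequence was available.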

[2] = target: Fuc(a1-2)Gal(b1-4)[Fuc(a1-3)]GlcNAc(b1-2)[Fuc(a1-2)Gal(b1-4)[Fuc(a1-3)]GlcNAc(b1-4)]Man(a1-3)[Fuc(a1-2)Gal(b1-4)[Fuc(a1-3)]GlcNAc(b1-2)Man(a1-6)]Man(b1-4)GlcNAc(b1-4)GlcNAc
How it was run: as §1

[3] = target: Fuc(a1-2)Gal(b1-4)[Fuc(a1-3)]GlcNAc(b1-3)Gal(b1-4)[Fuc(a1-3)]GlcNAc
How it was run: as §1

[4] = target: Fuc(a1-2)Gal(b1-4)[Fuc(a1-3)]GlcNAc(b1-3)Gal(b1-4)[Fuc(a1-3)]GlcNAc(b1-3)Gal(b1-4)[Fuc(a1-3)]GlcNAc
How it was run: as §1

[5] = target: Fuc(a1-2)Gal(b1-4)[Fuc(a1-3)]GlcNAc(b1-3)GalNAc
How it was run: as §1

[6] = target: Fuc(a1-2)Gal(b1-4)[Fuc(a1-3)]GlcNAc(b1-3)[Neu5Ac(a2-6)Gal(b1-4)GlcNAc(b1-6)]Gal(b1-4)Glc
How it was run: as §1

[7] = target: Fuc(a1-2)Gal3S(b1-4)GlcNAc
How it was run: as §1

[8] = target: Fuc(a1-2)Gal6S(b1-3)GlcNAc
How it was run: as §1

[9] = target: Fuc(a1-2)Gal6S(b1-3)GlcNAc6S
How it was run: as §1

Fuc(a1-2)Gal6S(b1-4)Glc = target: Fuc(a1-2)Gal6S(b1-4)Glc
How it was run: as §1

[10] = target: Fuc(a1-2)Gal6S(b1-4)Glc6S
How it was run: as §1

Fuc(a1-2)[Gal(a1-3)]Gal = target: Fuc(a1-2)[Gal(a1-3)]Gal
How it was run: as §1

[11] = target: Fuc(a1-2)[Gal(a1-3)]Gal(b1-3)GalNAc
How it was run: as §1

[12] = target: Fuc(a1-2)[Gal(a1-3)]Gal(b1-3)GalNAc(b1-3)Gal(a1-4)Gal(b1-4)Glc
How it was run: as §1

[13] = target: Fuc(a1-2)[Gal(a1-3)]Gal(b1-3)GlcNAc
How it was run: as §1

[14] = target: Fuc(a1-2)[Gal(a1-3)]Gal(b1-3)GlcNAc(b1-2)Man(a1-3)[Fuc(a1-2)[Gal(a1-3)]Gal(b1-3)GlcNAc(b1-2)Man(a1-6)]Man(b1-4)GlcNAc(b1-4)GlcNAc
How it was run: as §1

[15] = target: Fuc(a1-2)[Gal(a1-3)]Gal(b1-3)GlcNAc(b1-2)Man(a1-3)[Fuc(a1-2)[Gal(a1-3)]Gal(b1-3)GlcNAc(b1-2)Man(a1-6)]Man(b1-4)GlcNAc(b1-4)[Fuc(a1-6)]GlcNAc
How it was run: as §1

[16] = target: Fuc(a1-2)[Gal(a1-3)]Gal(b1-3)GlcNAc(b1-3)GalNAc
How it was run: as §1

[17] = target: Fuc(a1-2)[Gal(a1-3)]Gal(b1-3)GlcNAc(b1-6)GalNAc
How it was run: as §1

[18] = target: Fuc(a1-2)[Gal(a1-3)]Gal(b1-4)Glc
How it was run: as §1

[19] = target: Fuc(a1-2)[Gal(a1-3)]Gal(b1-4)GlcNAc
How it was run: as §1

[20] = target: Fuc(a1-2)[Gal(a1-3)]Gal(b1-4)GlcNAc(b1-2)Man
How it was run: as §1

[21] = target: Fuc(a1-2)[Gal(a1-3)]Gal(b1-4)GlcNAc(b1-2)Man(a1-3)[Fuc(a1-2)[Gal(a1-3)]Gal(b1-4)GlcNAc(b1-2)Man(a1-6)]Man(b1-4)GlcNAc(b1-4)GlcNAc
How it was run: as §1

[22] = target: Fuc(a1-2)[Gal(a1-3)]Gal(b1-4)GlcNAc(b1-2)Man(a1-3)[Fuc(a1-2)[Gal(a1-3)]Gal(b1-4)GlcNAc(b1-2)Man(a1-6)]Man(b1-4)GlcNAc(b1-4)[Fuc(a1-6)]GlcNAc
How it was run: as §1

[23] = target: Fuc(a1-2)[Gal(a1-3)]Gal(b1-4)GlcNAc(b1-3)GalNAc
How it was run: as §1

[24] = target: Fuc(a1-2)[Gal(a1-3)]Gal(b1-4)GlcNAc(b1-6)GalNAc
How it was run: as §1

[25] = target: Fuc(a1-2)[Gal(a1-3)]Gal(b1-4)[Fuc(a1-3)]Glc
How it was run: as §1

[26] = target: Fuc(a1-2)[Gal(a1-3)]Gal(b1-4)[Fuc(a1-3)]GlcNAc
How it was run: as §1

[27] = target: Fuc(a1-2)[Gal(a1-3)]Gal(b1-4)[Fuc(a1-3)]GlcNAc(b1-3)GalNAc
How it was run: as §1

[28] = target: Fuc(a1-2)[Gal(a1-4)]Gal(b1-4)GlcNAc
How it was run: as §1

[29] = target: Fuc(a1-2)[GalNAc(a1-3)]Gal
How it was run: as §1

[30] = target: Fuc(a1-2)[GalNAc(a1-3)]Gal(b1-3)GalNAc(a1-3)[Fuc(a1-2)]Gal(b1-4)GlcNAc
How it was run: as §1

[31] = target: Fuc(a1-2)[GalNAc(a1-3)]Gal(b1-3)GalNAc(b1-3)Gal(a1-4)Gal(b1-4)Glc
How it was run: as §1

[32] = target: Fuc(a1-2)[GalNAc(a1-3)]Gal(b1-3)GlcNAc
How it was run: as §1

[33] = target: Fuc(a1-2)[GalNAc(a1-3)]Gal(b1-3)GlcNAc(b1-2)Man(a1-3)[Fuc(a1-2)[GalNAc(a1-3)]Gal(b1-3)GlcNAc(b1-2)Man(a1-6)]Man(b1-4)GlcNAc(b1-4)GlcNAc
How it was run: as §1

[34] = target: Fuc(a1-2)[GalNAc(a1-3)]Gal(b1-3)GlcNAc(b1-2)Man(a1-3)[Fuc(a1-2)[GalNAc(a1-3)]Gal(b1-3)GlcNAc(b1-2)Man(a1-6)]Man(b1-4)GlcNAc(b1-4)[Fuc(a1-6)]GlcNAc
How it was run: as §1

[35] = target: Fuc(a1-2)[GalNAc(a1-3)]Gal(b1-3)GlcNAc(b1-3)GalNAc
How it was run: as §1

[36] = target: Fuc(a1-2)[GalNAc(a1-3)]Gal(b1-3)GlcNAc(b1-6)GalNAc
How it was run: as §1

B1: CPA (Cicer arietinum) (protein)
chain: MAFSYLNLVLVTLTTLFFLQTTKVKSQKSVSFHITNFTISRPSITLQGTAEFLPNVLLLNDIEHPVFVVGRALYSKPITLWNNKTGKVASFVTSFTFDVQDLKKTVPGHGLVFFLAPSGSEIPFSSDGGNLGVVDGKNAFNRFVGVEFDNFVNSWDPKYSHVGINVNSLISTKTVKWNRVSGELVKVSIVYDSVSTTLTVIVTYKNGQISILSQLVDLKAVLPDTVNIGFSASTTLVSPRQLHNIHSWSFTSTFET
Question: How did the “glycan array binding signal (z-score)” value [1] turn out when B1 was run?
Answer: The value was 1.26.

Question: And the “glycan array binding signal (z-score)” value [2]?
Answer: The value was 0.531.

Question: And the “glycan array binding signal (z-score)” value [3]?
Answer: Its value is -0.681.

Question: And the “glycan array binding signal (z-score)” value [4]?
Answer: The value was -0.685.

Question: What about the “glycan array binding signal (z-score)” value [5] of the same binder?
Answer: Its value is 1.62.

Question: What about the “glycan array binding signal (z-score)” value [6] of the same binder?
Answer: The value was -0.429.

Question: What about the “glycan array binding signal (z-score)” value [7] of the same binder?
Answer: The value was -0.683.

Question: What about the “glycan array binding signal (z-score)” value [8] of the same binder?
Answer: Its value is -0.432.

Question: And the “glycan array binding signal (z-score)” value [9]?
Answer: The value was 0.604.

Question: And the “glycan array binding signal (z-score)” value (Fuc(a1-2)Gal6S(b1-4)Glc)?
Answer: Its value is -0.439.

Question: What about the “glycan array binding signal (z-score)” value [10] of the same binder?
Answer: The value was -0.459.

Question: What about the “glycan array binding signal (z-score)” value (Fuc(a1-2)[Gal(a1-3)]Gal) of the same binder?
Answer: Its value is -0.469.

Question: What about the “glycan array binding signal (z-score)” value [11] of the same binder?
Answer: Its value is -0.461.

Question: What about the “glycan array binding signal (z-score)” value [12] of the same binder?
Answer: The value was -0.581.

Question: And the “glycan array binding signal (z-score)” value [13]?
Answer: Its value is -0.159.

Question: And the “glycan array binding signal (z-score)” value [14]?
Answer: The value was -0.655.

Question: What about the “glycan array binding signal (z-score)” value [15] of the same binder?
Answer: Its value is -0.184.

Question: What about the “glycan array binding signal (z-score)” value [16] of the same binder?
Answer: The value was -0.431.

Question: What about the “glycan array binding signal (z-score)” value [17] of the same binder?
Answer: Its value is -0.634.

Question: And the “glycan array binding signal (z-score)” value [18]?
Answer: The value was -0.387.

Question: What about the “glycan array binding signal (z-score)” value [19] of the same binder?
Answer: The value was -0.028.

Question: And the “glycan array binding signal (z-score)” value [20]?
Answer: The value was -0.454.

Question: And the “glycan array binding signal (z-score)” value [21]?
Answer: Its value is 0.562.

Question: And the “glycan array binding signal (z-score)” value [22]?
Answer: Its value is 0.14.

Question: What about the “glycan array binding signal (z-score)” value [23] of the same binder?
Answer: Its value is -0.133.

Question: And the “glycan array binding signal (z-score)” value [24]?
Answer: The value was -0.493.

Question: What about the “glycan array binding signal (z-score)” value [25] of the same binder?
Answer: Its value is -0.056.

Question: And the “glycan array binding signal (z-score)” value [26]?
Answer: Its value is -0.17.

Question: What about the “glycan array binding signal (z-score)” value [27] of the same binder?
Answer: Its value is -0.222.

Question: And the “glycan array binding signal (z-score)” value [28]?
Answer: Its value is 0.226.

Question: And the “glycan array binding signal (z-score)” value [29]?
Answer: Its value is -0.562.

Question: And the “glycan array binding signal (z-score)” value [30]?
Answer: The value was -0.438.

Question: And the “glycan array binding signal (z-score)” value [31]?
Answer: Its value is -0.86.

Question: What about the “glycan array binding signal (z-score)” value [32] of the same binder?
Answer: Its value is -0.437.

Question: And the “glycan array binding signal (z-score)” value [33]?
Answer: The value was -0.219.

Question: And the “glycan array binding signal (z-score)” value [34]?
Answer: Its value is -0.217.

Question: What about the “glycan array binding signal (z-score)” value [35] of the same binder?
Answer: The value was 3.66.

Question: And the “glycan array binding signal (z-score)” value [36]?
Answer: The value was -0.522.
